Data taken from the supplement of paper PMC9151546.
Many values rest on one well or one pass, so single values are uncertain.

Columns and labels:
CHO-K1 [1] = assay: hypodiploid nuclei frequency (% of nucleated events); higher = more hypodiploid events (aneugenic)
Description: (§1)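 Flow-cytometric in vitro micronucleus assay (Litron MicroFlow) in CHO-K1 cells in 96-well plates, 19 concentrations (4.5-200 µM, n=1 per concentration). Without S9, cells were exposed for 24 h and sampled at 48 h. With Aroclor 1254-induced rat liver S9, cells were exposed for 3-4 h and sampled at 27-28 h. Read-outs are %MN and %hypodiploid nuclei relative to nucleated events, and relative survival as the nuclei-to-bead ratio versus the 1% DMSO vehicle control (x100).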

CHO-K1 [2] = assay: micronucleus frequency (% of nucleated events); higher = more micronuclei (genotoxic)
CHO-K1 [3] = assay: relative survival (nuclei to bead ratio vs DMSO control) (% of vehicle control); higher = more surviving cells
Description: as §1
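For hypodiploid nuclei frequency (% of nucleated events) in this document: hypodiploid nuclei gated on a flow cytometer with 488 nm excitation after SYTOX Green staining, cultures at 37 °C, positive controls vinblastine without S9 and cyclophosphamide with S9.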
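For micronucleus frequency (% of nucleated events) in this document: cells lysed with nuclei stained by SYTOX Green, then micronucleus-gated events counted against nucleated events by flow cytometry with 488 nm excitation.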
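For relative survival (nuclei to bead ratio vs DMSO control) in this document: Lysed-cell nuclei stained with SYTOX Green and counted against counting beads by flow cytometry at 488 nm excitation, with vinblastine (no S9) and cyclophosphamide (plus S9) as positive controls.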

CC(C)(c1ccc(O)cc1)c1ccc(O)cc1 [Bisphenol A]
Details	hypodiploid nuclei frequency, CHO-K1 [1] [%]	micronucleus frequency, CHO-K1 [2] [%]	relative survival, CHO-K1 [3]
concentration: 4.5 (µM), S9 metabolic activation: with S9, exposure time: 3-4 hours	0.26	0.74	154
concentration: 4.5 (µM), S9 metabolic activation: without S9, exposure time: 24 hours	0.52	1.78	137
concentration: 5.63 (µM), S9 metabolic activation: with S9, exposure time: 3-4 hours	0.26	1.08	142
concentration: 5.63 (µM), S9 metabolic activation: without S9, exposure time: 24 hours	0.54	2.08	127
concentration: 7.04 (µM), S9 metabolic activation: with S9, exposure time: 3-4 hours	0.28	0.98	153
concentration: 7.04 (µM), S9 metabolic activation: without S9, exposure time: 24 hours	0.62	1.18	141
concentration: 8.8 (µM), S9 metabolic activation: with S9, exposure time: 3-4 hours	0.16	1.08	111
concentration: 8.8 (µM), S9 metabolic activation: without S9, exposure time: 24 hours	0.38	1.32	143
concentration: 11 (µM), S9 metabolic activation: with S9, exposure time: 3-4 hours	0.16	0.92	114
concentration: 11 (µM), S9 metabolic activation: without S9, exposure time: 24 hours	0.56	1.58	130
concentration: 13.7 (µM), S9 metabolic activation: with S9, exposure time: 3-4 hours	0.2	1.3	128
concentration: 13.7 (µM), S9 metabolic activation: without S9, exposure time: 24 hours	0.74	1.72	118
concentration: 17.2 (µM), S9 metabolic activation: with S9, exposure time: 3-4 hours	0.18	1.02	121
concentration: 17.2 (µM), S9 metabolic activation: without S9, exposure time: 24 hours	0.7	1.44	116
concentration: 21.5 (µM), S9 metabolic activation: with S9, exposure time: 3-4 hours	0.2	1.08	121
concentration: 21.5 (µM), S9 metabolic activation: without S9, exposure time: 24 hours	0.62	1.62	111
concentration: 26.8 (µM), S9 metabolic activation: with S9, exposure time: 3-4 hours	0.26	1.1	181
concentration: 26.8 (µM), S9 metabolic activation: without S9, exposure time: 24 hours	0.7	1.36	108
concentration: 33.6 (µM), S9 metabolic activation: with S9, exposure time: 3-4 hours	0.22	2	155
concentration: 33.6 (µM), S9 metabolic activation: without S9, exposure time: 24 hours	0.7	1.36	113
concentration: 41.9 (µM), S9 metabolic activation: with S9, exposure time: 3-4 hours	0.18	1.22	123
concentration: 41.9 (µM), S9 metabolic activation: without S9, exposure time: 24 hours	0.84	2.52	97.8
concentration: 52.4 (µM), S9 metabolic activation: with S9, exposure time: 3-4 hours	0.26	0.94	119
concentration: 52.4 (µM), S9 metabolic activation: without S9, exposure time: 24 hours	0.84	1.5	107
concentration: 65.5 (µM), S9 metabolic activation: with S9, exposure time: 3-4 hours	0.42	1.52	101
concentration: 65.5 (µM), S9 metabolic activation: without S9, exposure time: 24 hours	1.18	1.74	101
concentration: 81.9 (µM), S9 metabolic activation: with S9, exposure time: 3-4 hours	0.26	2.38	80.9
concentration: 81.9 (µM), S9 metabolic activation: without S9, exposure time: 24 hours	1.72	1.86	101
concentration: 102 (µM), S9 metabolic activation: with S9, exposure time: 3-4 hours	0.34	1.6	112
concentration: 102 (µM), S9 metabolic activation: without S9, exposure time: 24 hours	1.78	3.62	84.6
concentration: 128 (µM), S9 metabolic activation: with S9, exposure time: 3-4 hours	0.32	1.64	89.7
concentration: 128 (µM), S9 metabolic activation: without S9, exposure time: 24 hours	2.58	4.52	80.3
concentration: 160 (µM), S9 metabolic activation: with S9, exposure time: 3-4 hours	0.29	1.37	83.2
concentration: 160 (µM), S9 metabolic activation: without S9, exposure time: 24 hours	5.66	9.02	55.1
concentration: 200 (µM), S9 metabolic activation: with S9, exposure time: 3-4 hours	0.21	1.45	74.6
concentration: 200 (µM), S9 metabolic activation: without S9, exposure time: 24 hours	4.18	7.68	51.9

NC(=O)N1c2ccccc2C=Cc2ccccc21 [Carbamazepine]
Details	hypodiploid nuclei frequency, CHO-K1 [1] [%]	micronucleus frequency, CHO-K1 [2] [%]	relative survival, CHO-K1 [3]
concentration: 4.5 (µM), S9 metabolic activation: with S9, exposure time: 3-4 hours	0.32	2.36	132
concentration: 4.5 (µM), S9 metabolic activation: without S9, exposure time: 24 hours	0.52	1.54	74.3
concentration: 5.63 (µM), S9 metabolic activation: with S9, exposure time: 3-4 hours	0.22	1.8	116
concentration: 5.63 (µM), S9 metabolic activation: without S9, exposure time: 24 hours	0.7	1.4	77.2
concentration: 7.04 (µM), S9 metabolic activation: with S9, exposure time: 3-4 hours	0.24	2.16	116
concentration: 7.04 (µM), S9 metabolic activation: without S9, exposure time: 24 hours	0.42	1.08	95.8
concentration: 8.8 (µM), S9 metabolic activation: with S9, exposure time: 3-4 hours	0.16	1.6	122
concentration: 8.8 (µM), S9 metabolic activation: without S9, exposure time: 24 hours	0.54	2.06	98.2
concentration: 11 (µM), S9 metabolic activation: with S9, exposure time: 3-4 hours	0.24	1.58	122
concentration: 11 (µM), S9 metabolic activation: without S9, exposure time: 24 hours	0.74	1.4	84.4
concentration: 13.7 (µM), S9 metabolic activation: with S9, exposure time: 3-4 hours	0.28	1.74	113
concentration: 13.7 (µM), S9 metabolic activation: without S9, exposure time: 24 hours	0.7	1.5	102
concentration: 17.2 (µM), S9 metabolic activation: with S9, exposure time: 3-4 hours	0.26	1.74	109
concentration: 17.2 (µM), S9 metabolic activation: without S9, exposure time: 24 hours	0.6	1.42	73.7
concentration: 21.5 (µM), S9 metabolic activation: with S9, exposure time: 3-4 hours	0.3	1.28	113
concentration: 21.5 (µM), S9 metabolic activation: without S9, exposure time: 24 hours	0.56	1.52	88.9
concentration: 26.8 (µM), S9 metabolic activation: with S9, exposure time: 3-4 hours	0.28	1.98	165
concentration: 26.8 (µM), S9 metabolic activation: without S9, exposure time: 24 hours	0.48	1.88	87
concentration: 33.6 (µM), S9 metabolic activation: with S9, exposure time: 3-4 hours	0.36	2.72	134
concentration: 33.6 (µM), S9 metabolic activation: without S9, exposure time: 24 hours	0.68	1.4	117
concentration: 41.9 (µM), S9 metabolic activation: with S9, exposure time: 3-4 hours	0.28	1.62	147
concentration: 41.9 (µM), S9 metabolic activation: without S9, exposure time: 24 hours	0.58	1.04	81.3
concentration: 52.4 (µM), S9 metabolic activation: with S9, exposure time: 3-4 hours	0.32	1.78	133
concentration: 52.4 (µM), S9 metabolic activation: without S9, exposure time: 24 hours	0.5	1.16	89.3
concentration: 65.5 (µM), S9 metabolic activation: with S9, exposure time: 3-4 hours	0.3	2.14	125
concentration: 65.5 (µM), S9 metabolic activation: without S9, exposure time: 24 hours	0.72	1.72	119
concentration: 81.9 (µM), S9 metabolic activation: with S9, exposure time: 3-4 hours	0.4	1.78	111
concentration: 81.9 (µM), S9 metabolic activation: without S9, exposure time: 24 hours	0.96	1.86	105
concentration: 102 (µM), S9 metabolic activation: with S9, exposure time: 3-4 hours	0.34	1.86	126
concentration: 102 (µM), S9 metabolic activation: without S9, exposure time: 24 hours	0.68	1.64	86.6
concentration: 128 (µM), S9 metabolic activation: with S9, exposure time: 3-4 hours	0.24	1.1	120
concentration: 128 (µM), S9 metabolic activation: without S9, exposure time: 24 hours	1.12	2.22	102
concentration: 160 (µM), S9 metabolic activation: with S9, exposure time: 3-4 hours	0.34	1.66	128
concentration: 160 (µM), S9 metabolic activation: without S9, exposure time: 24 hours	1.34	2.14	70.1
concentration: 200 (µM), S9 metabolic activation: with S9, exposure time: 3-4 hours	0.2	1.44	115
concentration: 200 (µM), S9 metabolic activation: without S9, exposure time: 24 hours	1.6	2.38	63.4

COC(=O)Nc1nc2ccccc2[nH]1 [Carbendazim]
Details	hypodiploid nuclei frequency, CHO-K1 [1] [%]	micronucleus frequency, CHO-K1 [2] [%]	relative survival, CHO-K1 [3]
concentration: 4.5 (µM), S9 metabolic activation: with S9, exposure time: 3-4 hours	0.1	0.8	101
concentration: 4.5 (µM), S9 metabolic activation: without S9, exposure time: 24 hours	6.96	6.14	72.6
concentration: 5.63 (µM), S9 metabolic activation: with S9, exposure time: 3-4 hours	0.18	1.2	109
concentration: 5.63 (µM), S9 metabolic activation: without S9, exposure time: 24 hours	19	14.6	64
concentration: 7.04 (µM), S9 metabolic activation: with S9, exposure time: 3-4 hours	0.22	0.88	111
concentration: 7.04 (µM), S9 metabolic activation: without S9, exposure time: 24 hours	33.8	22.9	56
concentration: 8.8 (µM), S9 metabolic activation: with S9, exposure time: 3-4 hours	0.32	1	84.4
concentration: 8.8 (µM), S9 metabolic activation: without S9, exposure time: 24 hours	37.5	23.1	43.1
concentration: 11 (µM), S9 metabolic activation: with S9, exposure time: 3-4 hours	0.12	0.84	97.5
concentration: 11 (µM), S9 metabolic activation: without S9, exposure time: 24 hours	38.1	29.3	44.2
concentration: 13.7 (µM), S9 metabolic activation: with S9, exposure time: 3-4 hours	0.14	1.41	97.1
concentration: 13.7 (µM), S9 metabolic activation: without S9, exposure time: 24 hours	–	–	37.4
concentration: 17.2 (µM), S9 metabolic activation: with S9, exposure time: 3-4 hours	0.18	1.24	104
concentration: 17.2 (µM), S9 metabolic activation: without S9, exposure time: 24 hours	–	–	39.9
concentration: 21.5 (µM), S9 metabolic activation: with S9, exposure time: 3-4 hours	0.24	1.44	86.9
concentration: 21.5 (µM), S9 metabolic activation: without S9, exposure time: 24 hours	14.5	41.3	44.1
concentration: 26.8 (µM), S9 metabolic activation: with S9, exposure time: 3-4 hours	0.34	1.08	143
concentration: 26.8 (µM), S9 metabolic activation: without S9, exposure time: 24 hours	–	–	12.6
concentration: 33.6 (µM), S9 metabolic activation: with S9, exposure time: 3-4 hours	0.3	1.16	158
concentration: 41.9 (µM), S9 metabolic activation: with S9, exposure time: 3-4 hours	0.28	0.76	165
concentration: 41.9 (µM), S9 metabolic activation: without S9, exposure time: 24 hours	–	–	19.8
concentration: 52.4 (µM), S9 metabolic activation: with S9, exposure time: 3-4 hours	0.42	1.16	110
concentration: 52.4 (µM), S9 metabolic activation: without S9, exposure time: 24 hours	–	–	13.3
concentration: 65.5 (µM), S9 metabolic activation: with S9, exposure time: 3-4 hours	0.46	1.02	131
concentration: 65.5 (µM), S9 metabolic activation: without S9, exposure time: 24 hours	–	–	10.8
concentration: 81.9 (µM), S9 metabolic activation: with S9, exposure time: 3-4 hours	0.58	1.46	91.2
concentration: 81.9 (µM), S9 metabolic activation: without S9, exposure time: 24 hours	–	–	12.6
concentration: 102 (µM), S9 metabolic activation: with S9, exposure time: 3-4 hours	0.9	1.46	126
concentration: 102 (µM), S9 metabolic activation: without S9, exposure time: 24 hours	–	–	12.9
concentration: 128 (µM), S9 metabolic activation: with S9, exposure time: 3-4 hours	0.94	1.44	103
concentration: 128 (µM), S9 metabolic activation: without S9, exposure time: 24 hours	–	–	15
concentration: 160 (µM), S9 metabolic activation: with S9, exposure time: 3-4 hours	0.7	1.3	111
concentration: 160 (µM), S9 metabolic activation: without S9, exposure time: 24 hours	–	–	18.4
concentration: 200 (µM), S9 metabolic activation: with S9, exposure time: 3-4 hours	1.6	2.16	90.8
concentration: 200 (µM), S9 metabolic activation: without S9, exposure time: 24 hours	–	–	20.8
